Among all 310,000 compounds or so, about 14,000 (4.5%) showed an effect of 50% or more. The effect is printed as a negative number. This is one part of the list.
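Further: peak tail current of the secondary pulse compared with the same well before compound.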

In the experiment the target is human ether-à-go-go-related gene (hERG) potassium channel (human, UniProt Q12809). Kind of experiment: primary screen, population patch clamp on CHO cells stably expressing hERG.
human ether-à-go-go-related gene (hERG) potassium channel, sequence (Q12809 whole entry, looked up): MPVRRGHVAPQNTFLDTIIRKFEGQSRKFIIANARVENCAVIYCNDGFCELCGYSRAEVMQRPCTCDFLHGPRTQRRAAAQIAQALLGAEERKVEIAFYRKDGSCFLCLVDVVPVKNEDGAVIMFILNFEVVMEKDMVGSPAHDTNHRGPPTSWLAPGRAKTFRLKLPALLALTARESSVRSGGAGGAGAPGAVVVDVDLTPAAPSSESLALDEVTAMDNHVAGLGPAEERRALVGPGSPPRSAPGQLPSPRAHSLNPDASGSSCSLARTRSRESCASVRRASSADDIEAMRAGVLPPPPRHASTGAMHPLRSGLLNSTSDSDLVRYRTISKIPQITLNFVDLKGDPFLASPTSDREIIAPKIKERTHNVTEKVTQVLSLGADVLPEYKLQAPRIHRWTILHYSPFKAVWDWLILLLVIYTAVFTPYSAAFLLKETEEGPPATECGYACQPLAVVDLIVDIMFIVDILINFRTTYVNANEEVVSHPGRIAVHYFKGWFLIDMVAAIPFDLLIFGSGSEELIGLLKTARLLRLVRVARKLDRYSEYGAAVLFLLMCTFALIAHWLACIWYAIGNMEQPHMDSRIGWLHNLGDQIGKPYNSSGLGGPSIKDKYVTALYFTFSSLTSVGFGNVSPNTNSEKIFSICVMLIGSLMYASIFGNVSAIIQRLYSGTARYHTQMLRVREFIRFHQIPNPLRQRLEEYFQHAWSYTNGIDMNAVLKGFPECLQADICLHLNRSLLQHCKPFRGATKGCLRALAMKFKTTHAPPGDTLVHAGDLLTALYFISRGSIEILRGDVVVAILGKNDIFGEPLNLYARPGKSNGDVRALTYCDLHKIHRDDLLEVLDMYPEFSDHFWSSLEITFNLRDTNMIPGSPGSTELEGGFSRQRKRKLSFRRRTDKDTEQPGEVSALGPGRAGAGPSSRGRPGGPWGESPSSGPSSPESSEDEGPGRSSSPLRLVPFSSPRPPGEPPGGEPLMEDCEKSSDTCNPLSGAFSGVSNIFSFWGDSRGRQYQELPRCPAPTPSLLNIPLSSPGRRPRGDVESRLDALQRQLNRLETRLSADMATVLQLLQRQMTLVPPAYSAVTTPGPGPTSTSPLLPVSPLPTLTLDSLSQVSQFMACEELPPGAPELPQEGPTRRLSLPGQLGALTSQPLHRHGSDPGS
As to `COc1ccc(-c2nc(CSCC(=O)NCc3ccc4c(c3)OCO4)c(C)o2)cc1OC`, the “hERG current change (%, negative = inhibition) at 10uM” value is reported as -29.3%. As for `O=C(N/N=C/C=C/c1ccccc1)NC1CCCCC1`, the figure is -2.61%.

As to `O=C(COc1ccc(Cl)cc1)Nc1ccccc1C(=O)NCc1ccco1`, the “hERG current change (%, negative = inhibition) at 10uM” value is recorded as 4.32%.

Consider `CCOC(=O)c1sc2nc(C)nc(Nc3ccc(OC)c(OC)c3)c2c1C`, for which the “hERG current change (%, negative = inhibition) at 10uM” value was 23.5%.

With `O=C(/C=C(\c1ccccc1)n1cncn1)c1ccccc1`, the “hERG current change (%, negative = inhibition) at 10uM” value is 3.01%. To `COc1ccc(Cl)cc1C(=O)NCc1ccc2c(c1)OCO2` belongs 0.693%; to `Cc1cc(C(=O)NNC(=O)c2cccs2)c(C)o1`, 7.06%; to `CCN(CC)CCCNC(=O)c1ccc2c(Cl)c3c(nc2c1)CCCC3`, -48.7%. To `O=C(c1ccc(Cl)cc1)c1cc([N+](=O)[O-])ccc1N1CCOCC1` belongs -32.4%; to `O=C(c1ccccc1)c1cccc(NC(=O)c2ccc(Br)o2)c1`, -61.1%. Turning to `COc1ccc(Sc2nc(-c3ccccc3)ncc2OC)cc1`, the “hERG current change (%, negative = inhibition) at 10uM” value worked out at 41.5%.

As for `O=C(CNC(=O)c1ccc(Br)cc1)NCC(=O)OCC(=O)c1ccccc1`, the “hERG current change (%, negative = inhibition) at 10uM” value is 9.85%. In the case of `CC(C)(C)C(=O)C(Oc1cccc2nonc12)n1cncn1` (stereo not shown), the “hERG current change (%, negative = inhibition) at 10uM” value is on record as -21.7%. Turning to `CC(C)(C)c1ccc(C(=O)c2c[nH]c(C(=O)NCc3cccs3)c2)cc1`, the “hERG current change (%, negative = inhibition) at 10uM” value is 22.4%. As for `CC1CCC(NC(=O)c2cc3c(=O)n(C)c4ccccc4c3n2C)CC1` (stereo not shown), the figure is -13.9%; as for `Cc1ccc(Cl)cc1NC(=O)c1ccccc1OCC(=O)N1CCOCC1`, -63.6%; as for `Cc1ccc(N=CC2=C(O)CC(c3cccc(Cl)c3)CC2=O)cc1` (stereo not shown), 0.836%. To `c1ccc(N2CCOCC2)c(Nc2nc3ccccc3n3cnnc23)c1` belongs -2.53%.

With `CCOc1ccc(NC(=S)NN2CCN(C)CC2)cc1`, the “hERG current change (%, negative = inhibition) at 10uM” value stood at 7.15%. As for `Cc1ccc(S(=O)(=O)N2CCOCC2)cc1C(=O)c1nccn1C`, the figure is 5.59%. To `COc1ccccc1CCC(=O)Nc1nccs1` belongs 20.1%; to `O=C(CCc1nc2ccccc2c(=O)[nH]1)NNC(=O)COc1ccccc1Cl`, 4.24%; to `Cn1c(=O)c2c(ncn2CC(=O)OCC(=O)c2ccc(Cl)cc2)n(C)c1=O`, -2.98%.

Regarding `Cc1ccc(S(=O)(=O)N2CCC(CN3C(=O)c4cccc5cccc(c45)C3=O)CC2)cc1`, the “hERG current change (%, negative = inhibition) at 10uM” value is on record as 11.3%.

For the compound `CC(C)N(Cc1cc2ccccc2[nH]c1=O)C(=O)c1ccco1`, the “hERG current change (%, negative = inhibition) at 10uM” value was determined as 13%. As for `CCSc1nnc2ccc(-c3ccco3)nn12`, the figure is 3.55%; as for `O=C(Nc1ccc(OC(F)F)cc1)c1cc(S(=O)(=O)N2CCOCC2)ccc1F`, -31.3%. Turning to `COc1ccc(-c2ccc(C#N)c(SCC(=O)Nc3sc4c(c3C#N)CCC4)n2)cc1`, the “hERG current change (%, negative = inhibition) at 10uM” value came to 9.7%. To `CCc1c(C)nc(SCC(=O)NNC(=O)c2ccco2)[nH]c1=O` belongs 7.22%; to `Cc1sc2nc(SCC(=O)NCCOCCO)nc(N)c2c1C`, 20.5%; to `O=C(c1ccco1)N1CCN(c2nnc(-c3ccccc3)c3ccccc23)CC1`, -75.8%.

For `Cc1cccc(CSc2nnc(-c3cnccn3)n2C)c1`, the “hERG current change (%, negative = inhibition) at 10uM” value is on record as 2.52%.

Take `Cc1ccc(Cl)cc1N1CCN(C(=O)CSc2nnc3n2C(C)(C)Cc2ccccc2-3)CC1`: the “hERG current change (%, negative = inhibition) at 10uM” value is on record as -39%.

On to `CN(C)c1ccc(C(=O)c2ccc(N(C)C)cc2)cc1`, for which the “hERG current change (%, negative = inhibition) at 10uM” value is recorded as -20.5%. Regarding `COc1ccc(/C=C/C(=O)OCn2c(SC)nnc(C)c2=O)cc1OC`, the “hERG current change (%, negative = inhibition) at 10uM” value was -18.1%.

Take `Cc1ccc2oc(C(=O)N3CCC(N4CCSCC4)CC3)c(C)c2c1`: the “hERG current change (%, negative = inhibition) at 10uM” value is -30.6%. On to `Cc1ccccc1OCCNC(=S)Nc1ccccc1`, for which the “hERG current change (%, negative = inhibition) at 10uM” value was found to be 15.6%.

Turning to `COc1cccc(C(=O)NC2CCN(CC(=O)Nc3nccs3)CC2)c1`, the “hERG current change (%, negative = inhibition) at 10uM” value is reported as 1.18%. For the compound `Cc1ccc2nsnc2c1NC(=O)COc1ccccc1`, the “hERG current change (%, negative = inhibition) at 10uM” value is on record as 11.3%. Regarding `COc1cccc2c(=O)c3c(cnn3C)n(C)c12`, the “hERG current change (%, negative = inhibition) at 10uM” value was determined as 8.81%. Regarding `Oc1ccc(-c2csc(-c3c[nH]c4ccccc34)n2)c(O)c1`, the “hERG current change (%, negative = inhibition) at 10uM” value is listed as 5.01%. To `O=C(Nc1ccc(CN2CCOCC2)cc1)c1ccc(F)cc1` belongs -16.8%; to `COc1ccc(NC(=O)/C=C/c2ccccc2)c([N+](=O)[O-])c1`, 4.69%. As for `COc1cccc(CNC(=O)CCCc2cn(C)c3ccccc23)c1`, the “hERG current change (%, negative = inhibition) at 10uM” value is -17.4%. Turning to `O=C(COc1ccc(-c2ccccc2)cc1)N1CCN(C(=O)c2cccnc2)CC1`, the “hERG current change (%, negative = inhibition) at 10uM” value is given as -57.9%. As for `N/C(=N/[N+](=O)[O-])N1CCN(C(=O)Oc2ccc([N+](=O)[O-])cc2)CC1`, the figure is -36.5%.

For the compound `CCn1c(NC(=O)c2ccc(F)cc2)c2ccccc2nc1=O`, the “hERG current change (%, negative = inhibition) at 10uM” value is -11.7%. As for `Cc1ccccc1-n1cc[nH]c1=S`, the figure is 31.8%; as for `CCOc1ccc(S(=O)(=O)NCCC(=O)NCC2COc3ccccc3O2)cc1` (stereo not shown), -29.5%; as for `c1ccc(CSc2nnc(-c3ccco3)n2Cc2ccco2)cc1`, -34.6%. In the case of `Brc1cccc(/C=N/Nc2nc(N3CCCCC3)nc(N3CCCCC3)n2)c1`, the “hERG current change (%, negative = inhibition) at 10uM” value amounted to 19%.

Consider `CC1=N/C(=C/c2cc(Br)cc(Br)c2O)C(=O)O1`, for which the “hERG current change (%, negative = inhibition) at 10uM” value is reported as 17%. As to `O=C(CCc1ccccc1)NCc1ccccc1`, the “hERG current change (%, negative = inhibition) at 10uM” value is -8.04%. As for `COc1cccc(N2CCN(CC(=O)Nc3nnc(-c4ccccc4)s3)CC2)c1`, the figure is -19.1%; as for `COC(=O)CSc1ncnc2c(C)csc12`, 3.11%; as for `Cn1c2ccccc2c2c(C(=O)N3CCC4(CC3)OCCO4)cn(C3CCCC3)c(=O)c21`, -15.1%. To `CN(Cc1ccccc1)c1nc(N)c([N+](=O)[O-])c(Nc2cccc(F)c2)n1` belongs -11.9%; to `COc1cc(COCC(O)CN2CCN(Cc3ccc4c(c3)OCO4)CC2)cc(OC)c1OC.Cl` (stereo not shown), -0.319%.
